Laboratory results from PubChem BioAssay (NCI).
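Interpolation was linear, between the two tested concentrations surrounding the appropriate level; five concentrations were tested over 48 hours in 96-well plates. GI50 marks 50% less growth. The concentration for full growth arrest is given as TGI.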

System: NCI-H322M lung
Test: NCI tumour cell line growth inhibition, 48 h

In order of falling GI50:
1. COc1ccc(NC2=C(Cl)C(=O)C(C)=C(C)C2=O)cc1  33.3 µM
2. CC1=C2C(=C[C@@](C)(COC(=O)c3ccc(S(=O)(=O)F)cc3)[C@@H]2O)C(=O)[C@](C)(O)C12CC2  2.43 µM
3. CC(C)C(=O)Nc1ccc(-c2nc(-c3cccc(O)c3)c(-c3ccnc(Br)c3)[nH]2)cc1  1.22 µM
4. O=C(N/N=C/c1cccs1)c1[nH]c2ccc(Br)cc2c1-c1ccccc1  0.503 µM

Compared with `COc1ccc(NC2=C(Cl)C(=O)C(C)=C(C)C2=O)cc1`, `CC1=C2C(=C[C@@](C)(COC(=O)c3ccc(S(=O)(=O)F)cc3)[C@@H]2O)C(=O)[C@](C)(O)C12CC2` is lower in TGI: > 100 µM for the first, 8.29 µM for the second.

First: CC(C)C(=O)Nc1ccc(-c2nc(-c3cccc(O)c3)c(-c3ccnc(Br)c3)[nH]2)cc1
Second: O=C(N/N=C/c1cccs1)c1[nH]c2ccc(Br)cc2c1-c1ccccc1
The TGI of the first is lower: 9.96 µM for the first, > 100 µM for the second.
